PubChem BioAssay AID624296 (National Center for Advancing Translational Sciences (NCATS), 2012)
Among all 350,000 compounds or so, about 9,900 (2.8%) were called active. Inconclusive results, whose numbers are uncertain, are shown with a selection of clear calls. Calls follow the shape of the dose curve; as a rule, active = well fitted activation curve with a large enough effect; inconclusive = small, poorly fitted or top-dose-only effect; inactive = no such curve, though single readings can be large or run the other way. No potency is given beside an inconclusive call; the fits are too rough.

assay: A quantitative high throughput screen for small molecules that induce DNA re-replication in MCF 10a normal breast cells.; also: nearly all actives have a fitted effect of over 50% in size; conditions: MCF 10A DNA re-replication, Hoechst nuclear intensity, 48 h; series mostly up to 46.1 µM
Potency is read from the fitted curve at half-maximal effect; tags tell the direction and shape of the fitted curve.

Structure (SMILES) | Potency
O=C(CSc1nc(O)cc(=O)n1-c1ccc(Cl)c(Cl)c1)Nc1ccc(Cl)cc1Cl | inconclusive [activator, partial curve, poor fit]
COc1ccc(CN(CC(O)COc2cccc3[nH]cc(C)c23)C(C)(C)C)cc1 (centres undefined) | inconclusive [activator, single point]
COCCNC(=O)c1onc(CSc2ccccc2)c1C(=O)NCCOC | inconclusive [activator, full curve, poor fit]
CCOC(=O)C(C)/C(C)=N/NC(=O)c1cc2ccccc2cc1O (centres undefined) | inconclusive [activator, full curve, poor fit]
COC(=O)c1ccc(N=C2S/C(=C\c3cc(C)n(-c4cccnc4)c3C)C(=O)N2C)cc1 | inconclusive [activator, partial curve, poor fit]
COc1ccccc1/C=C/C(=O)c1cc(Br)ccc1OC(=O)c1ccco1 | active: 10.3 µM
Cc1ccc(-c2ccc(C(=O)Nc3ccccc3)o2)c2ccccc12 | inconclusive [activator, partial curve, poor fit]
CCOC(=O)C(=NCCCN(C)C)NNc1ccc(Br)cc1 | inconclusive [activator, single point]
Cc1cc(C)nc(SCc2ccc(C(=O)N/N=C/c3cccc(O)c3O)cc2)n1 | inconclusive [activator, partial curve, poor fit]
COc1ccc(NC(=O)C23CC4CC(C2)CC(c2ccc(C)cc2)(C4)C3)cc1 | inconclusive [activator, single point]
COC(=O)c1ccccc1NC(=S)NC(=O)c1ccc2ccccc2c1 | inconclusive [activator, single point]
COc1ccc(CNC(=O)c2ccc3oc(C(C)C)nc3c2)cc1 | inconclusive [activator, single point]
Cc1cccc(OCc2nnc(SCC(=O)N3c4ccccc4CC3C)n2C)c1C (centres undefined) | inactive
COc1ccc(C(CNC(=O)CSc2ccc(Br)cc2)N2CCOCC2)cc1 (centres undefined) | inactive
COc1ccccc1C=Cc1ccnc2ccccc12 | inconclusive [activator, single point]
CNC(=O)/C(C#N)=C/c1c(N2CCN(c3cccc(Cl)c3)CC2)nc2c(C)cccn2c1=O | active: 2.91 µM
C=CCn1c(SCc2c(C)noc2C)nc2cc(C(=O)O)ccc2c1=O | active: 2.91 µM
CCOCCn1c(N2CCCC2)nc2c1c(=O)n(C)c(=O)n2C | inactive
COc1ccc(NC(=S)NC23CC4CC(CC(C4)C2)C3)cc1OC | inactive
NC(N)=NN=C(c1ccc(F)cc1)c1ccc(C(F)(F)F)cc1 | inconclusive [activator, full curve, poor fit]
Cc1ccc(NC(=O)c2cc(C)n(-c3cccc(C)c3)c2C)cc1 | inconclusive [activator, partial curve, poor fit]
COC(=O)c1ccccc1NC(=O)N1c2ccccc2CC1C (centres undefined) | inconclusive [activator, single point]
Cc1nnc(SCC(=O)N2CCN(C(=O)c3ccco3)CC2)n1C | inconclusive [activator, partial curve, poor fit]

Structure (SMILES) | Potency
CCCN1CCC(=O)NC1=S | inactive
Cn1c(=O)n(C)c2cc(S(=O)(=O)Nc3ccc(F)cc3)ccc21 | inconclusive [activator, partial curve, poor fit]
COc1ccc(N2C(=O)CC(NNC(=O)c3cc(C)oc3C)C2=O)cc1 (centres undefined) | active: 2.59 µM
COc1ccc(-c2c(-c3cc(OC)cc(OC)c3)n(C)c3ccc(-c4ccc(S(N)(=O)=O)cc4)cc23)cc1 | inconclusive [activator, single point]
CCCCc1ccc(NC(=O)C(=O)NCCN2CCN(Cc3ccc([N+](=O)[O-])cc3)CC2)cc1 | active: 3.26 µM
Nc1nnc(N)c2ccccc12 | inconclusive [activator, partial curve, poor fit]
Cc1cc(C)nc(SCC(=O)Nc2sc3c(c2C#N)CCC(C)C3)n1 (centres undefined) | inactive
Cc1nc2cc(F)ccc2n1C1CCN(C(=O)c2c(F)cccc2F)CC1 | inactive
Cc1ccccc1OCCNC(=S)Nc1ccccc1 | inconclusive [activator, single point]
CC(C)CCNC(=O)C(c1ccco1)N(Cc1cccs1)C(=O)Cn1nnc2ccccc21 (centres undefined) | inactive
CC(=O)c1sc(NCc2ccc(C)cc2)nc1C | inconclusive [activator, partial curve, poor fit]
O=c1cc2c(c(-c3ccccc3)n1Cc1ccccc1)[C@H](CCO)NC2 | inconclusive [activator, single point]
CCCC[C@H]1C2=C3[C@@H](CC(C(=O)OC)=C[C@@H](C(=O)OC)[C@H]3C(C)(C)C2=O)n2c(=O)n(-c3ccccc3)c(=O)n21 | inconclusive [activator, partial curve, poor fit]
Nn1c(Cc2cccc3ccccc23)nnc1SCCOc1ccc(Br)cc1 | inconclusive [activator, single point]
Cc1ccccc1OCCC(=O)OCC(=O)Nc1cc(S(=O)(=O)N2CCOCC2)ccc1Cl | inconclusive [activator, single point]
COc1cccc(-c2nc(-c3ccc(C(=O)O)cc3)no2)c1 | inactive
CC(C)CCNC(=O)C(C)N(Cc1ccc(F)cc1)C(=O)c1ccc(CN2CCOCC2)o1 (centres undefined) | inactive
Oc1c(CNc2ccccc2)cc(COCc2ccccc2)c2cccnc12 | inactive
CCCCCc1nc(N)c(C#N)c(-c2ccco2)c1CCCC | inconclusive [activator, full curve, poor fit]
c1ccc(OCCCCN2CCCCC2)cc1 | inconclusive [activator, single point]
COc1cc(/C=C/c2ccc3cccc(O)c3n2)cc(Cl)c1OC | active: 14.6 µM
Cc1ccc(NC(=O)c2cc3ccccc3cc2O)cc1 | inconclusive [activator, partial curve, poor fit]
O=C(CN1C(=O)CSc2ccc(S(=O)(=O)N3CCCCCC3)cc21)NCCc1ccccc1 | inconclusive [activator, partial curve]

Structure (SMILES) | Potency
c1ccc(CN2CCN(C3=Nc4cccc5cccc3c45)CC2)cc1 | inconclusive [activator, partial curve]
COc1ccc(CC(=O)OCC(=O)N2N=C(c3ccccc3)CC2c2ccc(OC)cc2)cc1 (centres undefined) | inconclusive [activator, single point]
CCN(Cc1ccccc1)S(=O)(=O)c1ccc(C(=O)N(CCCN(C)C)c2nc3cc(C)cc(C)c3s2)cc1 | active: 23.1 µM
FC(F)(F)c1cc(-c2ccccc2)nc(NC2CCCC2)n1 | active: 7.31 µM
CN(C)CCN1C(=O)c2cccc3cc([N+](=O)[O-])cc(c23)C1=O | inconclusive [activator, full curve, poor fit]
Cc1cc(N/N=C/c2ccc(Cl)cc2Cl)nc(NCc2ccccc2)n1 | inconclusive [activator, single point]
COc1ccc(/C=N/NC(=O)CCn2c3ccccc3c3ccccc32)cc1OC | inactive
Cc1ccc(SCC(=O)Nc2nnc(C(C)(C)C)s2)cc1 | inconclusive [activator, single point]
Cc1ccc(/C(N)=N/OC(=O)c2cccc(Cn3cc(C(F)(F)F)ccc3=O)c2)cc1 | inconclusive [activator, partial curve, poor fit]
COc1ccccc1N1CCN(C(=O)/C=C/c2ccc3c(c2)OCO3)CC1 | inconclusive [activator, partial curve]
COc1ccccc1N1CCN(c2ccc(-c3ccccc3)nn2)CC1 | active: 2.59 µM
COc1ccc(C2=NCC(CSc3nnnn3C)S2)cc1 (centres undefined) | inconclusive [activator, single point]
CC(C)OC(=O)/C(=C\c1cccc2ccccc12)NC(=O)c1ccccc1 | inconclusive [activator, full curve, poor fit]
S=C(NCCc1ccc(Cl)cc1)NCc1ccco1 | inconclusive [activator, single point]
Cc1cc(C)cc(OCc2nc3ncc(Br)cc3[nH]2)c1 | inconclusive [activator, full curve, poor fit]
O=C(Nc1cccnc1)c1cc(F)cc(F)c1 | inactive
CCC(=O)N1CCN(c2ccc(NC(=O)c3ccco3)cc2Cl)CC1 | inactive
CCCCCCCCNC(=O)c1cccnc1SCC(=O)Nc1ccc(OC)cc1OC | inconclusive [activator, partial curve]
O=C(c1ccccc1NS(=O)(=O)c1ccc(Br)cc1)N1CCOCC1 | inactive
O=[N+]([O-])c1cccc(CN2CCCCCC2)c1 | inactive
CCC1(c2ccc(Cl)cc2)NC(=O)N(Cc2ccc(C(=O)OC)cc2)C1=O (centres undefined) | inactive
CC(O)CN1C(=O)C(CC(=O)Nc2ccc(Cl)cc2)SC1=Nc1ccccc1 (centres undefined) | inconclusive [activator, single point]
O=C(NC(=S)NC12CC3CC(CC(C3)C1)C2)c1ccc(F)cc1 | inconclusive [activator, partial curve, poor fit]
